# Results from the RNAGym collection of RNA variant scans (doi:10.7554/elife.90254).
# The source gives no read counts; variants with many changes may rest on few reads.
# B1: OR4K15 (parent)
# chain: GUUAACGGUCAUAGGCCAUGGAAACUAGGAGCACCAUUUCGCUGCCAGUGAAGAAAUGAACAAAGAAAAUCUGGGCCAGGCAGGCAUCAAAAGAAAUAGUCUUGCGCUCAACCAGAAAGUCUGUAAUCAUUUUAAGGGUA
# Variants of: B1
# Test: self-cleavage, relative activity (ratio to wild type); higher = more cleavage; in vitro, sequencing; the parent is a self-cleaving ribozyme
row,Variant,self-cleavage
1,GCUAACGGUCAUAGGCCAUGGAAACUAGGAGCACCAUUUCGCUGCCAGUGAAGAAAUGAGCAAAGAAAAUCUGGGCCAGGCAGGCAUCAAAGGAAAUAGUCUUGCGCUCAACCAGAAAGUCUGUAAUCAUUUCAAGGGUA [U2C A60G A92G U133C],1.2
2,GUUAACGGUCAUAGGCCAUGGAGACUAGGAGCACCAUUUCGCUGCCAGUGAAGAAAUGAACAAAGAAAAUCUGGGCCAGGCAGGCAUCAAGAGAAAAAGUCUUGCGCUCAACCGGAAAGUCUGUAAUCAUUUUAAGGGUA [A23G A91G U97A A114G],0.17
3,GUUAACGGUCAUAGGCCAUGGAAGCUAGGAGCACCGUUUCGCUGCCAGUGAAGAAAUGAACAAAGAAAAUCUGGGCCAGGCAGGCAUCAAAAGAAGUAGUCUUGCGCUCAACCAGAAGGUCUGUAAUCAUUUUAAGGGUA [A24G A36G A96G A118G],1.6
4,GAUAACGGUCAUAGGCCAUGGGAACUAGGAGCACCAUUUCGCUGCCAGGGAAGAAAAGAACAAAGAAAAUCUGGGCCAGGCAGGCAUCAAAAGAAAUAGUCUUGCGCUCAACCAGAAAGUCUGUAAUCAUUUUAAGGGUA [U2A A22G U49G U57A],1.49
5,GCUAACGGUCAUUGGCCAUGGAAACUAGGGGCACCAUUUCGCUGCCAGUGAAGAAAUGAACAAAGAAAAUCUGGGCCUGGCAGGCAUCAAAAGAAAUAGUCUUGUGCUCAACCAGAGAGUCUGUAAUCAUUUUAAGGGUA [U2C A13U A30G A78U C105U A117G],0.04
6,GUUAACGGUCAUAGGCCAUGGAAACUAGGAGCACCAUUUCGGUGCCAGUGAAGAAAUGGACAAAGAAGAUCUGGGCCAGGCAGGCAUCAAGAGAAAUAGCCUUGCGCUCAACCAGAAAGUCUGUAAUCAUUUUAAGGGUA [C42G A59G A68G A91G U100C],1.32
7,GUUAACGGCCAUAGGCCAUGGAGACUAGGAGCACCAUUUCGCUGCCAGUGAAGAAAUGAACAAAGAAAGUCUGGGCCAGGCAGGCAUCAAAAGAAAUAGUCUUGCGCUCAACCAGUAAGUCUGUAAUCAUUUUGAGGGUA [U9C A23G A69G A116U A134G],0.08
8,GUUAACGGUCAUAGGCCAUGGAAACUAGGGGCACCAUUUCGCUGCCAGUGAAGAAAUGGACAAAGAAAAUCUGGGCCAGGCAGGCAUCAAGAGAAAUAGUCUUGCGCUCGACCAGAAAGUCUGUAAUCAUUUUAAGGGUA [A30G A59G A91G A110G],0.14
9,GUUAACGGUCCUAGGCCAUGGAAACUAGGAGCACCAUUUCGCUGCCAGUGAAGAAAUGAACAAAGAAAAUCUGGGCCAGGCAGGCAUCAAAAGAAACAGUCUUGCGCUCAACCAGAAAGUCCGUAAUCAUUUUAAGGGUA [A11C U97C U122C],0.09
10,GUUAACGGUCUUAGGCCAUGGAAACUAGGAGCACCAUCUCGCUGCCAGUGAAGAAAUGAACAAAGAAAAUCUGGGCCAGGCAGGCAUCAAAAGAUAUAGUCUUGCGCUCAACCAGAAAGUCUGUAAUCAUUUUAAGGGUA [A11U U38C A95U],1.29
11,GUUAACGGUCAUAGGCCAUGGAAACCAGGAGCACCACUUCGCUGCCAGUGAAGAAAUGAACAAAGAAAAUCUGGGCCAGGCAGGCAUCAAAAGAAAUAGUCUUGCGCUCAACCAGAAAGUCUGUAAUCAUUUCUAGGGUA [U26C U37C U133C A134U],1.79
12,GUUAACGGUCAUAGGCCAUGGAAACUAGGAGCACCAUUUCGCUGCCAGUGAAGAAAUGAACAAAGAGAAUCUGGGCCAGGCAGGCAUCAGAAGAAAUAGUCCUGCGCUCGACCAGAAAGUCUGUAAUCAUUUUAAGGGUA [A67G A90G U102C A110G],0.06
13,GUUAGCGGUCAUAGGCCAUGGAGACUAGGAGCACCAUUUCGCUGCCAGUGAAGAAAUGAACAAGGAAAAUCUGGGCCAGGCAGGCAUCAAAAGGAAUAGUCUUGCGCUCAACCAGAAAGUCUGUAAUCACUUUAAGGGUA [A5G A23G A64G A94G U130C],0.29
14,GUUAACGGUCAUAGGCCAUGGAAACUAGGAGCACCAUUUCGCUGCCGGUGAAGUAAUGAACAAAGAAAAUCUGGGCCAGGCAGGCAUCUAAAGAAAUAGACUUGCGCUCAACCAGAAAGUCUGUAAUCAUUUUAAGGGUA [A47G A54U A89U U100A],0.8
15,GUUAACGGUCAUAGGCCAUGGAAACUAGGGGCACCAUUCCGCUGCCAGUGAAGAAAUGAACAAAGAAAAUCUGGGCCAGGCAGGCAUCAAAAGAAAUAGUCUUGCACUCAACUAGAAAGUCUGUAAUCAUUUUAAGGGUA [A30G U39C G106A C113U],0
16,GUUAACGGUCAUAGGCCAUGGAAACUAGGAGCACCAUUUCGCUGCCAGUGAAGAAACGGACAAAGAAGAUCUGGGCCAGGCAGGCAUCAAAAGAAAUAGUCAUGCGCUCAACCAGAAAGUCUGUAAUCAUUUUAAGGGUA [U57C A59G A68G U102A],0.9
17,GUUAACGGUCAUAGGCCACGGAAACUAGGAGCACCAUUUCGCUGCCAGUGAAGAAAUGAACAAAGAAAAUCUGGGCCAGGCGGGCAUCAAGAGAAAUAGUCUUGCGCUCAACCAGAAAGUCCGUAAUCAUUUUAAGGGUA [U19C A82G A91G U122C],0.06
18,GUUAACGGUCAUAGGCCAUGGAAACUAGGAGCUCCAUUUCGCUGCCUGUGAAGAAAUGAACAAAGAAAGUCUGGGCCAGGCAGGCAUCAAAAGAAAUAGUCUUGCGCUCAACCAGAAAGUCUGUAAUCAUUUUAAGGGUA [A33U A47U A69G],1.15
19,GUUAACGGUCAUAGGCCAUGGAAACUAGGAGCGCCAUCUCGCUGCCAGUGAAGAAAUGAACAAAGAAAAUCUGGGCCGGGCAGGCAUCGAAAGAAAUAGUCUUGCGCUCAGCCAGAAAGUCUGCAAUCAUUUUAAGGGUA [A33G U38C A78G A89G A111G U124C],0.02
20,GUUAACGGUCGUAGGCCAUGGAAACUAGGAGCACCAUUUCGCUGCCAGUGAAGAAAUGAACAGAGAAAAUCAGGGCCAGGCAGGCAUCAAAAGAAAUAGUCUUGCGCUCAACCAGAAAGUCUGUAAUCAUUUUAAGGGUA [A11G A63G U72A],0.1
21,GUUAACGGUCAUUGGCCAUGGAAACUAGGAGCACCAUUUCGCUGCCAGUGAAGAACUGAACAAGGAAAAUCUGGGCCAGGCAGGCAUCAAAAGAAAUAGUCUUGCGCUCAACCGGAAAGUCUGUAAUCAUUUUAAGGGUA [A13U A56C A64G A114G],0.36

row,Variant,self-cleavage
1,GUUAACGGUCAUAGGCCAUGGAAACUAGGAGCACCAUCUCGCUGCCAGUGAAGAAAUGAACAAAGAAAAUCAGGGCCAGGCAGGCAUCAAGAGAAAUAGUCUUGCGCUCAACCAGGAAGUCUGUAAUCAUUUUAAGGGUA [U38C U72A A91G A116G],0.05
2,GUUAACGGUCAUAGGCCAUGGAAACUAGGGGCACCAUUUCGCUGCCAGUGAAGAAAUGAACAGAGAAAAUCUGGGCCAGGCAGGCAUCAAAAGAAAUAGUCUUGCGCUCAACCAGAAAGUCCGUAAUCACUUUAAGGGUA [A30G A63G U122C U130C],0.89
3,GUUAACGGUCAUAGGCCAUGGAAACUAGGAGCACCAUUUCGCUGCCAGUGAAGAUAUGAACAAAGGAAGUCUGGGCCAGGCAGGCAUCAAAAGAAAUAGUCUUGCGCUCAACCAGAAAGUCUGUAAUCAUUUUAAGGGUA [A55U A66G A69G],0.85
4,GUUAACGGUCAUUGGCCAUGGGAACUAGGAGCACCAUUUCGCUGCCAGUGAAGAAAUGAACAAAGAAAGUCUGGGCCUGGCAGGCAUCAAAAGAAAUAGCCUUGCGCUCAACCAGAAAGUCUAUAAUCAUUAUAAGGGUA [A13U A22G A69G A78U U100C G123A U132A],0.99
5,GUUAACGGUCAUAGGCCAUGGUAACUAGGAGCACCAUUUCGCUGCCAGUGAAGAAAUGAACAAAGAAAACCUGGGCCAGGCAGGCAUCAAAAGAAAUAGCCUUGCGCUCAACCAGAAAGUCUGUAAUCAUCUUAAGGGUA [A22U U70C U100C U131C],2.37
6,GUUAACGGUCAUAGGCCAUGGAAACUAGGAAUACCAUUUCGCUGCCAGUGAAGAAAUGAACGUAGGAAAUCUGGGCCAGGCCGGCAUCAAAAGAAAUAGUCUUGCGCUCAACCAGAAAGUCUGUAAUCAUUUUAAGGGUA [G31A C32U A62G A63U A66G A82C],0.09
7,GUUAACGGUCAUAGGCCAUGGAAACUAGGAGCACCACUUCGCUGCCAGUGAAGAAAUGAACAAAGGAGAUCUGGGCCAGGCGGGCAUCAAAAGGAAUAGCCUUGCGCUCAACCAGAAAGUCUGUAAUCAUUUUAAGGGUA [U37C A66G A68G A82G A94G U100C],0.92
8,GUUAACGGUCAUAGGCCAUGGAAACUAGGAGCACCAUUUCGCUGCCAGUGAAGAAAUGAACAAAGAAAAUCUGGGCCGGGCAGACAUCAAAAGAAAUAGUCUUGCGCUCAACCAGGAAGUCUGUAAUCAUUUUAAGGGUA [A78G G84A A116G],0.1
9,GUUAACGGUCAUAGGCCUUGGAGACUAGGAGCACCAUUUCGCUGCCAGUGAAGAAGUGGACAAAGAAAAUCUGGGCCAGGCAGGCAUCAAAAGAAAUAGUCUUGCGCUCAACCAGAAAGUCUGUAAUAAUUUUAAGGGUA [A18U A23G A56G A59G C128A],1.12
10,GUUAACGGUCAUAGGCCUUGGAAACUAGGAGCACCAUUUCGCUGCCAGUGAAGGAAUGAACAAAGAAAAUCUGGGCCGGGCAGGCAUCAAAAGAAAUAGUCUUGCGCUCAAUCAGAAAGUCUGUAAUCAUUUUAAGGGUA [A18U A54G A78G C112U],0
11,GUUAACGGUCAUAGGCCAGGGAAACUAGGAGCACCAUUUCGCUGCCAGUGAAGAAAUGAACAUAGGAAAUCUGGGCCAGGCAGGCACCAAAAGAAAUAGUCUUGCGCUCAACCAGAAAGUCUGUAAUCAUUUUAAGGGUA [U19G A63U A66G U87C],1.33
12,GUUAACGGUCAUAGGCCUUGGAAACUAGGAGCACCAUUUCGCUGCCAGUGAAGAAAUGAACAAGGAAAAUCUGGGCCAGGCAGGCAUCAAAGGAAAUAGUCUUGCGCUCAACCAGAAAGUCUGUAAUCAUUUUAAGGGUA [A18U A64G A92G],0.87
13,GUUAACGGUCAUAGGCCAUGGAAACUAGGAGCACCAUUUCGCUGCCCGUGAAGAGAUGAACAAAGAAAAUCUGGGCCAGGCAGGCAUCAAGAGAGAUAGUCUUGCGCUCAACCAGAAAGUCUGUAAUCGUUUCAAGGGUA [A47C A55G A91G A95G A129G U133C],2.42
14,GUUAACGGUCAUGGGCCAUGGAAACUAGGAGCACCAUUCCGCUGCCAGUGAAGAAAUGAACAAAGGAAAUCUGGGCCAGGCAGGCAUCUAAAGAAAUAGUCUUGCGCUCAACCAGAAAGUCGGUAAUCAUUUUAAGGGUA [A13G U39C A66G A89U U122G],1.22
15,GUUAACGGUCAUAGGCCAUGGAAACUAGGAGCACCAUUUCGCUGCCAGUGAAGAAAUGAACAAAGUAAAUCUGGGCCAGGCAGGCGUCAAGAGGAAUAGCCUUGCGCUCAACCAGAAAGUCUGUAAUCAUUUUAAGGGUA [A66U A86G A91G A94G U100C],1.37
16,GUUAACGGUCAUAGGCCAUGGAAGCUAGGAGCACCAUCUCGCUGCCAGAGAAGAAAUGAACAAAGAAAAUCUGGGCCAGGCAGGCAUCAAAAGAAAUAGUCUUGCGCCCAACCAGAAAGUCUGUAAUCAUUUUAAGGGUA [A24G U38C U49A U108C],0.03
17,GUUAACGGUCAUAGGCCAUGGAAACUAGGAGCACCAUUUCGCUGCCAGUGAAGGAACGAACAAAGAAAAUCUGGACCAGGCAGGCAUCAAAAGAAAUAGUCUUGCGCUCAACCAGAAAGUCAGUAAUCAUUUUAAGGGUA [A54G U57C G75A U122A],0.1
18,GUUAACGGUCAUGGGCCAUGGAAACUAGGAGCACCAUUUCGCUGCCAGUGAAGAAAUGAACAAAGAAAAUCUGGGCCAGGCAGGCACCAAAAGAAAUAGUCUUGCGCUCAACCAGUAAGUCUGUAAUCAUUUUAAGGGUA [A13G U87C A116U],0.61
19,GUUAACGGUCGUAGGCCAUGGAGACUAGGAGCACCAUUCCGCUGCCAGUGAAGAAAUGAACAAAGAAAAUCUGGGCCAGGCAGGCAUCAAAAGAAAUAGUCUUGCGCUCAACCAGAAGGUCUGUAAUCAUUUUAAGGGUA [A11G A23G U39C A118G],0.26
20,GUUAUCGGUCAUAGGCCAUGGAAACUGGGAGCACCAUUUCGCUGCCAGUGAAGAAAUGAACAAAGGAAAUCUGUGCCAGGCAGGCAUCAAAAGAAAUAGUCUUGCGCUCAACCAGAAAGUCUGUAAUCAUUUUAAGGGUA [A5U A27G A66G G74U],0.29
